From publication PMC9303752
Where “and” joins values, the source holds several entries; their conditions need not be identical. Equal values may be shown once.

Biological target: T1, Properdin (purified from human serum, Quidel A412) (human), P27918
T1 chain: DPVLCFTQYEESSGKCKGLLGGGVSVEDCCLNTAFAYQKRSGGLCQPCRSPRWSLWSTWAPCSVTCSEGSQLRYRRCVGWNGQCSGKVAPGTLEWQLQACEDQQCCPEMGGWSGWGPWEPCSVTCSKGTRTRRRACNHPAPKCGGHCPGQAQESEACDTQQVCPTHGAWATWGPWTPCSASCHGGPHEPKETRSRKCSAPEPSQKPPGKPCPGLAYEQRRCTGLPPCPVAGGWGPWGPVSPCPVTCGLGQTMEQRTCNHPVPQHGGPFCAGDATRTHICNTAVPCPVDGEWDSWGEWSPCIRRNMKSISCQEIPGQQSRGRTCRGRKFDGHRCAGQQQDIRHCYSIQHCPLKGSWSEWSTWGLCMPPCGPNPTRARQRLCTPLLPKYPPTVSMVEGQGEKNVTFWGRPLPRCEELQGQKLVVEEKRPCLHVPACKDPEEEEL
Experiment: SEC
Conditions: remark: other sources report otherwise

B1: Properdin (purified from human serum, Quidel A412), P27918 28-469 (natural protein)
chain: DPVLCFTQYEESSGKCKGLLGGGVSVEDCCLNTAFAYQKRSGGLCQPCRSPRWSLWSTWAPCSVTCSEGSQLRYRRCVGWNGQCSGKVAPGTLEWQLQACEDQQCCPEMGGWSGWGPWEPCSVTCSKGTRTRRRACNHPAPKCGGHCPGQAQESEACDTQQVCPTHGAWATWGPWTPCSASCHGGPHEPKETRSRKCSAPEPSQKPPGKPCPGLAYEQRRCTGLPPCPVAGGWGPWGPVSPCPVTCGLGQTMEQRTCNHPVPQHGGPFCAGDATRTHICNTAVPCPVDGEWDSWGEWSPCIRRNMKSISCQEIPGQQSRGRTCRGRKFDGHRCAGQQQDIRHCYSIQHCPLKGSWSEWSTWGLCMPPCGPNPTRARQRLCTPLLPKYPPTVSMVEGQGEKNVTFWGRPLPRCEELQGQKLVVEEKRPCLHVPACKDPEEEEL
stoichiometry N: 2 and 3 and 4
